Measured values reported in PubChem BioAssay AID686971 (National Center for Advancing Translational Sciences (NCATS), 2013).
The whole screen tested about 360,000 compounds, of which about 7,500 (2.1%) were called active. The inconclusive results got no clear call from the source; some entries with a clear call stand among them for comparison. The call rests on the fitted dose curve; in most records, active means well fitted cell-killing curve with a large enough effect; inconclusive means small, poorly fitted or top-dose-only effect, or effect the other way, or another doubt; inactive means no such curve, though single readings can be large or run the other way. Potencies of inconclusive entries are left out as doubtful fits.

experiment: qHTS for induction of synthetic lethality in tumor cells producing 2HG: qHTS for the HT-1080-IDH1KD cell line; settings: HT-1080 IDH1 knockdown viability, ATP luminescence, 48 h; activity, negative = toxicity: at 46.1 µM (top of the series) unless noted;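 on activity, negative = toxicity: 0% = DMSO wells and -100% = cell-free medium wells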
Outline: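 Using the IDH1-knockdown HT-1080 line run in the same batch and compound series as the NT line, viability after 48 h at 37 °C was determined by CellTiter-Glo luminescence and expressed as % activity.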
Potency means the concentration at half of the fitted maximal effect; tags describe the fitted curve by direction and shape.

Row | SMILES | activity, negative = toxicity | Potency
1 | CC(Sc1nnc(Cn2c(=O)sc3ccccc32)n1C)c1ccccc1 (stereo unspecified) | inactive: -0.366% | 
2 | COCc1cc(=O)[nH]c(Nc2nc3ccc(C)cc3o2)n1 |  | inconclusive [cytotoxic, partial curve]
3 | COc1ccc(NS(=O)(=O)c2cc(NC(=O)c3ccc(=O)[nH]n3)ccc2C)cc1 |  | inconclusive [cytotoxic, single point]
4 | CC(C)C1C(c2ccccc2)NC(c2ccccc2)CC1(O)c1ccc(F)cc1 (stereo unspecified) |  | inconclusive [cytotoxic, single point]
5 | CCCCSCc1nc2nc(Cl)c(Cl)nc2[nH]1 |  | inconclusive [cytotoxic, single point]
6 | COc1ccc(NS(=O)(=O)c2cc(NC(=O)CC3CCCC3)ccc2N2CCOCC2)cc1 |  | inconclusive [cytotoxic, partial curve]
7 | CCOC(=O)c1sc(NC(=O)CCCn2nc([N+](=O)[O-])c(Cl)c2C)c(C(=O)OCC)c1C | inactive: -3.85% | 
8 | COc1cc(Br)cc(CN2CCN(C/C=C/c3ccccc3)CC2)c1O |  | inconclusive [cytotoxic, single point]
9 | O=C(O)C[C@H]1c2cc(C(F)(F)F)ccc2S(=O)(=O)N1C1CCCCC1 | inactive: 0.829% | 
10 | CCOC(=O)CSC1=NC(=O)/C(=C\c2ccc(OC(C)=O)cc2)S1 |  | inconclusive [cytotoxic, partial curve]
11 | CC1(C)Cc2c(sc(NC(=O)c3ccc4ncsc4c3)c2C(N)=O)C(C)(C)N1 |  | active: 23.1 µM
12 | CCC1CCCCN1CCCNC(=O)C1CCC(CNS(=O)(=O)c2c(C)cc(C)cc2C)CC1 (stereo unspecified) |  | inconclusive [cytotoxic, single point]
13 | Cc1ccc2nc(NC(=O)CSc3nc4ccccc4o3)sc2c1 | inconclusive: -37.2% | 
14 | COCCCn1c(SCC(=O)NCc2ccccc2)nc2ccccc2c1=O | inconclusive: 30.1% | 
15 | Cc1[nH]n2c(=O)cc(C(C)C)nc2c1-c1ccccc1 |  | inconclusive [cytotoxic, single point]
16 | CCCCNC(=O)C1(C)CCN1C(=O)c1cc(F)ccc1C (stereo unspecified) | inactive: 15.6% | 
17 | CCOCCCNC(=O)c1cc2sc(Cl)cc2n1CC |  | inconclusive [cytotoxic, partial curve]
18 | Cc1ccc(NC2=CC(=O)C(=O)c3ccccc32)cc1 |  | active: 6.31 µM
19 | Cc1[nH]c2ccc(C(=O)OCC(=O)NC3(C#N)CCCCC3)cc2c1C | inactive: -13.3% | 
20 | COc1ccc(N=Cc2cc(Cc3ccccc3Cl)cc([N+](=O)[O-])c2O)cc1OC | inactive: -0.345% | 
21 | Nc1ccc(C#Cc2c(-c3ccsc3)oc3ccc(N4CCOCC4)cc23)cc1 |  | inconclusive [cytotoxic, single point]
22 | CS(=O)(=O)c1sc(C#N)c2c1C(=O)CC(c1ccccc1)C2 (stereo unspecified) |  | active: 23.1 µM
23 | COc1ccc(-c2ccnc(SCC(=O)c3ccc(Cl)cc3)n2)cc1 | inactive: 8.37% | 
24 | CCOc1ccc(C2Nc3ccc4ccccc4c3-c3c2c(=O)oc2ccccc32)cc1 (stereo unspecified) |  | inconclusive [cytotoxic, single point]

Row | SMILES | activity, negative = toxicity | Potency
25 | CN(C)C1=NC[C@H](Cc2ccccc2)N1CCCC1CCCC1 |  | inconclusive [cytotoxic, partial curve]
26 | O=[N+]([O-])c1ccc(N2CCN(C(=S)NCc3ccc(Cl)cc3)CC2)cc1 |  | inconclusive [cytotoxic, partial curve]
27 | Cc1ccc(C(=O)Nc2nc3ccccc3c(=O)s2)cc1 |  | active: 7.94 µM
28 | Cc1ccc(N(CN2CCCC2=O)C(=O)c2ccccc2)cc1 | inactive: -0.658% | 
29 | O=[N+]([O-])c1cccc(C=NNc2ccccc2)c1 |  | inconclusive [cytotoxic, full curve]
30 | COc1cc(C2Nc3cccc4cccc(c34)N2)cc(OC)c1O |  | inconclusive [cytotoxic, single point]
31 | Cc1ccc(-c2c[n+]3c(n2-c2ccccc2)CCC3)cc1 |  | inconclusive [cytotoxic, partial curve]
32 | CCOc1ccc(NC(=O)C(=O)NCCN2CCN(S(=O)(=O)c3ccccc3)CC2)cc1 |  | inconclusive [rising, single point]
33 | CCc1ccc2[nH]c(=O)c(CN(CCN(C)C)C(=O)Nc3ccccc3)cc2c1 |  | inconclusive [cytotoxic, single point]
34 | CCc1ccc(CNC(=O)Cc2ccc(NC(=O)C3=C(C)OCCS3)cc2)cc1 |  | active: 1.3 µM
35 | COc1cc(C(=O)NC2CCN(C)CC2)ccc1Nc1ncc2c(n1)N(CCc1ccccc1)CCC(=O)N2C |  | inconclusive [cytotoxic, single point]
36 | c1ccc(C2(CNc3ccccn3)CCCC2)cc1 |  | inconclusive [cytotoxic, single point]
37 | COc1ccc2c(c1)c(=O)c(C(=O)c1ccccc1)cn2Cc1ccc(C)cc1 |  | inconclusive [cytotoxic, single point]
38 | Cc1noc(NS(=O)(=O)c2ccc(N/C=C\C(=O)c3ccc(Br)cc3)cc2)c1C | inactive: 2.45% | 
39 | CCOc1cc(/C=C2\CN(CC)C/C(=C\c3ccc(O)c(OCC)c3)C2=O)ccc1O |  | active: 2.91 µM
40 | CCCCNc1c(-c2ccc(-c3ccc(C(C)=O)cc3)c(OC)c2)nc2cc(C)ccn12 |  | inconclusive [cytotoxic, single point]
41 | CC(=O)c1cccc(NC(=O)CN2C(=O)NC3(CCCCCCC3)C2=O)c1 |  | inconclusive [cytotoxic, single point]
42 | COc1ccc(C(=O)NC(=S)Nc2ccccc2N2CCOCC2)cc1[N+](=O)[O-] | inactive: -14.7% | 
43 | CC1CCc2nc(NC(=O)CN3CCN(c4ccc(F)cc4)CC3)sc2C1 (stereo unspecified) | inactive: 6.09% | 
44 | CC(C)(C)OC(=O)CNC(=O)c1[nH]cnc1C(=O)NCCCCCNC(=O)OC(C)(C)C | inactive: -22.1% | 
45 | COc1ccc(-c2cc(C(=O)NCC3CCCO3)c3cc(C(C)C)ccc3n2)cc1 (stereo unspecified) | inactive: 11.2% | 
46 | O=C(Nc1ccc(Br)cc1)C1C2C=CC3(O2)C1C(=O)N(CCN1CCCCC1)C3C(=O)NC1CCCCC1 (stereo unspecified) |  | inconclusive [cytotoxic, single point]
47 | CCCN(CCC)CCNC(=O)c1cc2c(C)nc3ccccc3c2o1 |  | inconclusive [cytotoxic, single point]
48 | Cc1c2cnn(CC(=O)NCCCN3CC(C)CC(C)C3)c(=O)c2c(C)n1Cc1ccc(Cl)cc1 (stereo unspecified) |  | inconclusive [cytotoxic, single point]

Row | SMILES | activity, negative = toxicity | Potency
49 | COc1ccccc1N(C)S(=O)(=O)c1ccc(C)c(C(=O)NCc2ccccn2)c1 | inactive: 11% | 
50 | Cc1[nH]c(=O)n(C(C)C)c(=O)c1Br | inactive: -4.34% | 
51 | Cc1c(OCC(=O)NCc2cccnc2)ccc2c3c(c(=O)oc12)CCCC3 | inconclusive: 31.6% | 
52 | CC(NC(=O)COc1ccccc1)C(=O)N1CCN(c2ccc(F)cc2)CC1 (stereo unspecified) | inactive: -0.395% | 
53 | CC(C)C1OC(c2cccc(NC(=O)c3cccs3)c2)OCC1(C)C (stereo unspecified) |  | inconclusive [cytotoxic, partial curve]
54 | NS(=O)(=O)c1ccc(CNC(=O)c2ccc3ccccc3n2)cc1 |  | inconclusive [cytotoxic, full curve, poor fit]
55 | Cc1ccc(S(=O)(=O)/N=C2\C=C(Nc3cccc(C(=O)O)c3)C(=O)c3ccccc32)cc1 |  | active: 20.6 µM
56 | Cc1ccc(-c2nn(-c3ccccc3)cc2CN(Cc2ccccc2)C(=O)c2ccco2)o1 |  | inconclusive [cytotoxic, single point]
57 | CCN(CC)S(=O)(=O)c1ccc2[nH]c(=O)cc(C(=O)Nc3ccc(C)c(S(=O)(=O)N(CC)CC)c3)c2c1 |  | inconclusive [cytotoxic, single point]
58 | Oc1ccc(Br)cc1/C=N/n1c(C2CCCCC2)n[nH]c1=S | inactive: 20.8% | 
59 | O=C(NCC1CCCO1)C(=Cc1cccc([N+](=O)[O-])c1)C(=O)NCC1CCCO1 (stereo unspecified) |  | inconclusive [cytotoxic, single point]
60 | COC(=O)[C@]12CCCCC=C1N(Cc1ccc(Cl)cc1Cl)C(=O)[C@H](CC(=O)NCc1cccc(C(F)(F)F)c1)C2 |  | inconclusive [cytotoxic, single point]
61 | O=C1OC(/C(=C\Nc2ccccc2)[N+](=O)[O-])c2ccccc21 (stereo unspecified) |  | inconclusive [cytotoxic, partial curve]
62 | CC(=O)Oc1c(-c2ccco2)oc2ccccc2c1=O |  | inconclusive [cytotoxic, single point]
63 | COc1cc(C2NC(=O)CCC2[N+](=O)[O-])c(OC)cc1Br (stereo unspecified) | inactive: 31.6% | 
64 | Cc1cccc(C)c1NC(=O)C(c1ccc([N+](=O)[O-])cc1)N(C)C(=O)c1ccccn1 (stereo unspecified) | inactive: -0.174% | 
65 | O=C(Nc1nnc([C@@H]2C[C@H](O)[C@@H](CO)O2)s1)c1cccc(C(F)(F)F)c1 | inactive: 21.4% | 
66 | CC1(C)CC(N2CCCCC2)=CC(=[N+]2CCCCC2)C1 |  | inconclusive [cytotoxic, partial curve]
67 | COc1ccc(NS(=O)(=O)c2ccc(Oc3c(C#N)cccc3C#N)cc2)cc1 |  | inconclusive [cytotoxic, single point]
68 | Cc1ccccc1NC(=O)c1ccc(Nc2c([N+](=O)[O-])cc([N+](=O)[O-])c3ccccc23)cc1 | inactive: -7.68% | 
69 | Cc1ccccc1NC(=O)C1CCC(C)(C(=O)O)C1(C)C (stereo unspecified) | inactive: 6.88% | 
70 | CC/C(=N/Nc1cccc(C)c1)c1cnnc(SC)n1 |  | inconclusive [cytotoxic, single point]
71 | CC1=C(C(=O)N(C(C)C)C(C)C)CC(CC(=O)NCCCN(C)C)C(=O)N1Cc1ccc(C(C)(C)C)cc1 (stereo unspecified) |  | inconclusive [cytotoxic, single point]
